From a collection of fitness landscapes (doi:10.1016/j.celrep.2020.107928)
The full ranking holds about 81,000 sequences; the median of “one-hybrid fitness for binding NBS DNA” is about -0.1, and the highest 2% start at about 0.36. The list shows a part of the results.

B1: Caulobacter ParB omega fusion; a variant is named by its letters at X, in order, B8GW30 (parent)
chain: MESVVVGEPGMSEGRRGLGRGLSALLGEVDAAPAQAPGEQLGGSREAPIEILQRNPDQPRRTFREEDLEDLSNSIREKGVLQPILVRPSPDTAGEYQIVAGERAWRAAQRAGLKTVPIMVRELDDLAVLEIGIIENVQRADLNVLEEALSYKVLMEKFERTQENIAQTIGKSXSHVANXMRLLXLPDEVQSYLVSGELTAXHARAIAAAADPVALAKQIIEGGLSVRETEALARKAPNLSAGKSKGGRPPRVKDTDTQALESDLSSVLGLDVSIDHRGSTGTLTITYATLEQLDDLCNRLTRGI

Variants of: B1
Assay: one-hybrid fitness for binding NBS DNA (the Noc-binding site; scaled: cognate 1, non-cognate 0); higher = stronger binding
Details: with NBS DNA site
How it was run: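 The reporter was HIS3, with the binding site 19 bp from the promoter, in E. coli USO used for bacterial one-hybrid selection of Caulobacter ParB libraries with four specificity codons randomised. Growth was on M9 lacking histidine, with 0.1 mM IPTG and 5 mM 3-AT, for 48 hours at 37°C. Illumina sequencing covered plasmids before and after selection; three replicate libraries were pooled and variants with under 10 reads dropped. A fitness score is the log change in variant-to-wild-type read ratio, rescaled to the cognate and non-cognate references.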

Row | Variant | one-hybrid fitness for binding NBS DNA
1 | RSAG | ≤ 0.2
2 | YGHG | ≤ 0.2
3 | QKRS | 0.677
4 | AAKR | 0.205
5 | WMVR | ≤ 0.2
6 | TIQV | ≤ 0.2
7 | FEPR | ≤ 0.2
8 | KYHG | ≤ 0.2
9 | WSPP | ≤ 0.2
10 | YLLC | ≤ 0.2
11 | SSSL | ≤ 0.2
12 | PNHL | ≤ 0.2
13 | TKDM | ≤ 0.2
14 | TKDH | ≤ 0.2
15 | RLIV | ≤ 0.2
16 | IKTN | ≤ 0.2
17 | YDNG | ≤ 0.2
18 | TDTF | ≤ 0.2
19 | EYDG | ≤ 0.2
20 | GGPE | ≤ 0.2
21 | YTVR | ≤ 0.2
22 | MLGG | ≤ 0.2
23 | CVKY | ≤ 0.2
24 | CMMC | ≤ 0.2
25 | PDDE | ≤ 0.2

Row | Variant | one-hybrid fitness for binding NBS DNA
26 | QNNY | ≤ 0.2
27 | CNLM | ≤ 0.2
28 | GCIF | ≤ 0.2
29 | NFWT | ≤ 0.2
30 | IDCY | ≤ 0.2
31 | TFRT | ≤ 0.2
32 | VDRC | ≤ 0.2
33 | VVGV | ≤ 0.2
34 | IKQG | ≤ 0.2
35 | SSYT | ≤ 0.2
36 | PQNN | ≤ 0.2
37 | KIMG | ≤ 0.2
38 | TDNW | ≤ 0.2
39 | AAYS | ≤ 0.2
40 | TNRF | ≤ 0.2
41 | YSLF | ≤ 0.2
42 | ILGR | ≤ 0.2
43 | NFRE | ≤ 0.2
44 | EGLT | ≤ 0.2
45 | WCGS | ≤ 0.2
46 | TGAC | ≤ 0.2
47 | VLCC | ≤ 0.2
48 | PSRL | ≤ 0.2
49 | TMTC | ≤ 0.2
50 | RQGE | ≤ 0.2

Row | Variant | one-hybrid fitness for binding NBS DNA
51 | VWIQ | ≤ 0.2
52 | HHIV | ≤ 0.2
53 | CWAR | ≤ 0.2
54 | APRL | ≤ 0.2
55 | AIMV | ≤ 0.2
56 | FSQC | ≤ 0.2
57 | ALNE | ≤ 0.2
58 | QLAI | ≤ 0.2
59 | QDAG | ≤ 0.2
60 | PGMQ | ≤ 0.2
61 | MVSI | ≤ 0.2
62 | TNTC | ≤ 0.2
63 | MEYL | ≤ 0.2
64 | QQYA | 0.303
65 | GLPQ | ≤ 0.2
66 | AAIT | ≤ 0.2
67 | WMQC | ≤ 0.2
68 | FTQF | ≤ 0.2
69 | ASTW | ≤ 0.2
70 | WTVH | ≤ 0.2
71 | RSHV | ≤ 0.2
72 | MTCT | ≤ 0.2
73 | QRAL | 0.272
74 | TLIM | ≤ 0.2
75 | DNCS | ≤ 0.2

Row | Variant | one-hybrid fitness for binding NBS DNA
76 | DSIQ | ≤ 0.2
77 | PQSI | ≤ 0.2
78 | LATM | ≤ 0.2
79 | HKAT | ≤ 0.2
80 | DWHG | ≤ 0.2
81 | RFPV | ≤ 0.2
82 | YTAR | ≤ 0.2
83 | RVIC | ≤ 0.2
84 | EPIG | ≤ 0.2
85 | RDTC | ≤ 0.2
86 | YRVT | ≤ 0.2
87 | ALVM | ≤ 0.2
88 | NGQK | ≤ 0.2
89 | CPSL | ≤ 0.2
90 | RWWL | ≤ 0.2
91 | PAWL | ≤ 0.2
92 | SHEI | ≤ 0.2
93 | TKIH | ≤ 0.2
94 | CFTK | ≤ 0.2
95 | FATM | ≤ 0.2
96 | MLQC | ≤ 0.2
97 | RLRF | ≤ 0.2
98 | KFHT | ≤ 0.2
99 | YPRA | ≤ 0.2
100 | KWTS | ≤ 0.2

Row | Variant | one-hybrid fitness for binding NBS DNA
101 | LMPT | ≤ 0.2
102 | HAMR | ≤ 0.2
103 | TNEY | ≤ 0.2
104 | RTKP | ≤ 0.2
105 | YTGS | ≤ 0.2
106 | YKMT | ≤ 0.2
107 | DSHV | ≤ 0.2
108 | GRPH | ≤ 0.2
109 | IYCG | ≤ 0.2
110 | THSG | ≤ 0.2
111 | KRIG | ≤ 0.2
112 | LDQD | ≤ 0.2
113 | QKQA | 0.34
114 | SPSG | ≤ 0.2
115 | VRTM | ≤ 0.2
116 | WMSR | ≤ 0.2
117 | PGDH | ≤ 0.2
118 | RSVP | ≤ 0.2
119 | PESK | ≤ 0.2
120 | GHSM | ≤ 0.2
121 | DRPG | ≤ 0.2
122 | HTTH | ≤ 0.2
123 | GMWT | ≤ 0.2
124 | QQTN | ≤ 0.2
125 | HACS | ≤ 0.2

Row | Variant | one-hybrid fitness for binding NBS DNA
126 | GIAH | ≤ 0.2
127 | HHRG | ≤ 0.2
128 | CYTR | ≤ 0.2
129 | YPMY | ≤ 0.2
130 | LILQ | ≤ 0.2
131 | CPAF | ≤ 0.2
132 | SKQV | ≤ 0.2
133 | KHSF | ≤ 0.2
134 | PFPE | ≤ 0.2
135 | AGAW | ≤ 0.2
136 | DRYG | ≤ 0.2
137 | PEGT | ≤ 0.2
138 | DLDA | ≤ 0.2
139 | LNTR | ≤ 0.2
140 | LGSW | ≤ 0.2
141 | CTHV | ≤ 0.2
142 | LMGC | ≤ 0.2
143 | EYVT | ≤ 0.2
144 | SNCG | ≤ 0.2
145 | NMTS | ≤ 0.2
146 | SPDK | ≤ 0.2
147 | STFW | ≤ 0.2
148 | HTNH | ≤ 0.2
149 | SYKS | ≤ 0.2
150 | GAKC | ≤ 0.2

Row | Variant | one-hybrid fitness for binding NBS DNA
151 | YNTD | ≤ 0.2
152 | AWDG | ≤ 0.2
153 | QCMG | ≤ 0.2
154 | QIRA | 0.386
155 | AYGM | ≤ 0.2
156 | NAQG | ≤ 0.2
157 | FQTH | ≤ 0.2
158 | PDRL | ≤ 0.2
159 | CNIV | ≤ 0.2
160 | PTMY | ≤ 0.2
161 | PLPM | ≤ 0.2
162 | NLCS | ≤ 0.2
163 | QKHV | ≤ 0.2
164 | HLHD | ≤ 0.2
165 | VRCG | ≤ 0.2
166 | LSQC | ≤ 0.2
167 | ITVC | ≤ 0.2
168 | YLDR | ≤ 0.2
169 | LVAD | ≤ 0.2
170 | PGSS | ≤ 0.2
171 | VDYL | ≤ 0.2
172 | KDSL | ≤ 0.2
173 | PVPP | ≤ 0.2
174 | VGMC | ≤ 0.2
175 | ITHH | ≤ 0.2

Row | Variant | one-hybrid fitness for binding NBS DNA
176 | PPIR | ≤ 0.2
177 | LSNN | ≤ 0.2
178 | SYYP | ≤ 0.2
179 | CRCY | ≤ 0.2
180 | QFRG | ≤ 0.2
181 | QHAQ | ≤ 0.2
182 | YLTN | ≤ 0.2
183 | YSFS | ≤ 0.2
184 | EWSG | ≤ 0.2
185 | NMHF | ≤ 0.2
186 | EVRY | ≤ 0.2
187 | YTQL | ≤ 0.2
188 | AILL | ≤ 0.2
189 | LPQV | ≤ 0.2
190 | FLNY | ≤ 0.2
191 | YLSV | ≤ 0.2
192 | EYGW | ≤ 0.2
193 | QPQA | ≤ 0.2
194 | LTEW | ≤ 0.2
195 | QVVV | ≤ 0.2
